# Measured values taken from the supplement of paper PMC10369915.
# The list shows a part of the results. Rule as the data show it: active = 3.2 or more and inactive = the rest. The signal is at background level for most entries.
# B1: ARF1_Y35_Y35H (peptide)
# chain: KTTILHKLKLG
# B2: AR_Y916_Q920R (peptide)
# chain: KVKPIYFHTRG
# B3: ASL_Y376_K380E (peptide)
# chain: TDLAYYLVREG
# B4: ARF1_Y35 (peptide)
# chain: KTTILYKLKLG
# B5: ASL_Y375_R379C_YF (peptide)
# chain: ATDLAYFLVCK
# B6: ASL_Y375_R379C (peptide)
# chain: ATDLAYYLVCK
# B7: ASL_Y375_YF (peptide)
# chain: ATDLAYFLVRK
# B8: ARSB_Y165_R160Q_YF (peptide)
# chain: QGFDTYFGFLL
# B9: ASL_Y376_K380E_YF (peptide)
# chain: TDLAFYLVREG
# B10: ARFGEF1_Y314_G316E (peptide)
# chain: KNEVLYDEENH
# B11: ARSB_Y165_R160Q (peptide)
# chain: QGFDTYFGYLL
# B12: ARAP2_Y380 (peptide)
# chain: IKSSIYDNRKE
# B13: ARID1B_Y483 (peptide)
# chain: DMGAQYAAASP
# B14: ASNS_Y555_R550C (peptide)
# chain: CTLTHYKSAVK
# B15: ASB10_Y457_R453C (peptide)
# chain: PCLLRYLQLDF
# B16: ASAH1_Y43_T42A (peptide)
# chain: PSGPAYRGAVP
# B17: AR_Y858_R856H (peptide)
# chain: CSRHFYQLTKL
# B18: ASS1_Y113_G117D (peptide)
# chain: REGAKYVSHDA
# B19: ASL_Y376_R379C_YF (peptide)
# chain: TDLAFYLVCKG
# Target: SHP2 C-SH2 domain E139D
# Assay: enrichment score (SH2-bound / input frequency) (ratio); bacterial display of known human phosphotyrosine sites (pTyr-Var adds point mutants) read by sequencing; higher = stronger binding; tyrosines were phosphorylated by kinases first
# Conditions: peptide library: pTyr-Var
# 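Also: displayed peptides selected on beads carrying the immobilized SH2 domain, with library peptides lacking any tyrosine serving as negative controls.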
row,Binder,enrichment score
1,B1,inactive: 2.76
2,B2,active: 4.43
3,B3,inactive: 0.926
4,B4,inactive: 2.4
5,B5,inactive: 1.04
6,B6,inactive: 1.07
7,B7,inactive: 1.07
8,B8,inactive: 0.652
9,B9,inactive: 1.15
10,B10,inactive: 0.547
11,B11,inactive: 1.07
12,B12,inactive: 0.743
13,B13,inactive: 0.511
14,B14,inactive: 0.91
15,B15,inactive: 3.08
16,B16,inactive: 0.57
17,B17,inactive: 1.37
18,B18,inactive: 0.463
19,B19,inactive: 0.806

# Target: SHP2 C-SH2 domain wild-type
# Assay: as above
# Conditions: peptide library: pTyr-Var
row,Binder,enrichment score
1,B1,inactive: 2.24
2,B2,active: 3.69
3,B3,inactive: 1.29
4,B4,inactive: 2.16
5,B5,inactive: 1.33
6,B6,inactive: 1.52
7,B7,inactive: 0.87
8,B8,inactive: 0.746
9,B9,inactive: 1.23
10,B10,inactive: 0.654
11,B11,inactive: 0.915
12,B12,inactive: 0.863
13,B13,inactive: 0.483
14,B14,inactive: 1.2
15,B15,inactive: 2.98
16,B16,inactive: 0.509
17,B17,inactive: 1.31
18,B18,inactive: 0.599
19,B19,inactive: 0.934

# Target: SHP2 N-SH2 domain L43F
# Assay: as above
# Conditions: peptide library: pTyr-Var
row,Binder,enrichment score
1,B1,inactive: 2.89
2,B2,active: 4.02
3,B3,inactive: 0.79
4,B4,inactive: 2.14
5,B5,inactive: 0.852
6,B6,inactive: 1.15
7,B7,inactive: 0.816
8,B8,inactive: 0.767
9,B9,inactive: 1
10,B10,inactive: 0.676
11,B11,inactive: 0.771
12,B12,inactive: 0.794
13,B13,inactive: 0.469
14,B14,inactive: 1
15,B15,active: 7.49
16,B16,inactive: 0.553
17,B17,inactive: 1.34
18,B18,inactive: 0.538
19,B19,inactive: 0.944

# Target: SHP2 N-SH2 domain T42A
# Assay: as above
# Conditions: peptide library: pTyr-Var
row,Binder,enrichment score
1,B1,inactive: 1.92
2,B2,active: 3.85
3,B3,inactive: 1.24
4,B4,inactive: 1.98
5,B5,inactive: 0.774
6,B6,inactive: 1.05
7,B7,inactive: 0.882
8,B8,inactive: 0.594
9,B9,inactive: 1.05
10,B10,inactive: 0.652
11,B11,inactive: 0.876
12,B12,inactive: 0.957
13,B13,inactive: 0.476
14,B14,inactive: 0.959
15,B15,active: 8.59
16,B16,inactive: 0.467
17,B17,inactive: 1.22
18,B18,inactive: 0.37
19,B19,inactive: 0.947

# Target: SHP2 N-SH2 domain T52S
# Assay: as above
# Conditions: peptide library: pTyr-Var
row,Binder,enrichment score
1,B1,inactive: 2.6
2,B2,active: 3.93
3,B3,inactive: 0.625
4,B4,inactive: 2.41
5,B5,inactive: 0.875
6,B6,inactive: 0.96
7,B7,inactive: 1.02
8,B8,inactive: 0.716
9,B9,inactive: 0.963
10,B10,inactive: 0.632
11,B11,inactive: 0.715
12,B12,inactive: 0.629
13,B13,inactive: 0.551
14,B14,inactive: 0.911
15,B15,active: 8.51
16,B16,inactive: 0.686
17,B17,inactive: 1.33
18,B18,inactive: 0.522
19,B19,inactive: 0.733

# Target: SHP2 N-SH2 domain wild-type
# Assay: as above
# Conditions: peptide library: pTyr-Var
row,Binder,enrichment score
1,B1,inactive: 2.26
2,B2,active: 3.75
3,B3,inactive: 0.911
4,B4,inactive: 2.13
5,B5,inactive: 1.32
6,B6,inactive: 1.83
7,B7,inactive: 1.03
8,B8,inactive: 0.877
9,B9,inactive: 1.14
10,B10,inactive: 0.842
11,B11,inactive: 0.909
12,B12,inactive: 0.73
13,B13,inactive: 0.627
14,B14,inactive: 1.17
15,B15,active: 4.2
16,B16,inactive: 0.636
17,B17,inactive: 1.32
18,B18,inactive: 0.584
19,B19,inactive: 1.47
